The other results are listed elsewhere or left out. The full chains were built here from the parent and the listed change. Inactive controls read about 0.05.

Sequences and labels used below:
B1: TEV protease; numbered along this chain (parent)
chain: MGESLFKGPRDYNPISSSICHLTNESDGHTTSLYGIGFGPFIITNKHLFRRNNGTLVVQSLHGVFKVKDTTTLQQHLVDGRDMIIIRMPKDFPPFPQKLKFREPQREERICLVTTNFQTKSMSSMVSDTSCTFPSGDGIFWKHWIQTKDGQCGSPLVSTRDGFIVGIHSASNFTNTNNYFTSVPKNFMELLTNQEAQQWVSGWRLNADSVLWGGHKVFMVKPEEPFQPVKEATQL

The variants in this assay derive from B1. The experiment in a line: raw area under fraction-flipped curve 0-4 h after induction (AUC4h, not background-subtracted), DNA-recorder readout of cleavage of the substrate (dimensionless); higher = more cleavage of the substrate by the protease variant. The settings on record: temperature: 34 °C; time window: 0-4 h after rhamnose induction. How it is done:
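In vivo DNA recorder in E. coli TOP10(DE3) ΔrhaA at 34 °C. Each TEVp single-site mutant (parent TEVp 0) is paired with a single-site variant of the 7-mer TEVs (canonical ENLYFQ|S). The substrate sits between flexible linkers in a Bxb1-sfGFP-TEVs-SsrA fusion, so cleavage stabilises Bxb1 and speeds flipping of a recombination array, read by NGS. The value is the raw area under the fraction-flipped curve over 0-4 h after rhamnose induction (AUC4h), with ≥20 reads per time point. It is not background-subtracted; inactive controls average about 0.047.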
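Note: Bxb1 expression induced with 0.2% (w/v) L-rhamnose at OD600 near 0.5, cultures sampled hourly, flipped fraction per protease–substrate barcode pair counted by paired-end Illumina sequencing.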

On to MGESLFKGPRDYNPISSSICHLTNESDTHTTSLYGIGFGPFIITNKHLFRRNNGTLVVQSLHGVFKVKDTTTLQQHLVDGRDMIIIRMPKDFPPFPQKLKFREPQREERICLVTTNFQTKSMSSMVSDTSCTFPSGDGIFWKHWIQTKDGQCGSPLVSTRDGFIVGIHSASNFTNTNNYFTSVPKNFMELLTNQEAQQWVSGWRLNADSVLWGGHKVFMVKPEEPFQPVKEATQL [G28T], for which the “area with substrate EALYFQS” value worked out at 0.118, the “area with substrate ECLYFQS” value worked out at 0.0869, the “area with substrate EDLYFQS” value stood at 0.0969 and the “area with substrate EELYFQS” value came out at 0.127. Further, the “area with substrate EFLYFQS” value worked out at 0.0725, the “area with substrate EGLYFQS” value is 0.0856, the “area with substrate EHLYFQS” value worked out at 0.114 and the “area with substrate EILYFQS” value turned out to be 0.0792. Besides, the “area with substrate EKLYFQS” value stood at 0.1, the “area with substrate ELLYFQS” value came to 0.0687, the “area with substrate EMLYFQS” value turned out to be 0.0958 and the “area with substrate EPLYFQS” value came out at 0.11. Moreover, the “area with substrate EQLYFQS” value was found to be 0.0242, the “area with substrate ERLYFQS” value is 0.0844, the “area with substrate ESLYFQS” value turned out to be 0.0961 and the “area with substrate EVLYFQS” value amounted to 0.0797.

Take MGESLFKGPRDYNPIASSICHLTNESDGHTTSLYGIGFGPFIITNKHLFRRNNGTLVVQSLHGVFKVKDTTTLQQHLVDGRDMIIIRMPKDFPPFPQKLKFREPQREERICLVTTNFQTKSMSSMVSDTSCTFPSGDGIFWKHWIQTKDGQCGSPLVSTRDGFIVGIHSASNFTNTNNYFTSVPKNFMELLTNQEAQQWVSGWRLNADSVLWGGHKVFMVKPEEPFQPVKEATQL [S16A]: the “area with substrate EALYFQS” value came to 0.138, the “area with substrate ECLYFQS” value worked out at 0.107, the “area with substrate EELYFQS” value is 0.118 and the “area with substrate EFLYFQS” value turned out to be 0.0905. Also, the “area with substrate EGLYFQS” value came out at 0.128, the “area with substrate EHLYFQS” value amounted to 0.135, the “area with substrate EILYFQS” value is 0.11 and the “area with substrate EKLYFQS” value was 0.112. Also, the “area with substrate ELLYFQS” value was 0.127, the “area with substrate EMLYFQS” value is 0.134, the “area with substrate EPLYFQS” value was found to be 0.138 and the “area with substrate EQLYFQS” value turned out to be 0.113. Also, the “area with substrate ERLYFQS” value worked out at 0.102, the “area with substrate ESLYFQS” value worked out at 0.103, the “area with substrate ETLYFQS” value was 0.149 and the “area with substrate EVLYFQS” value is 0.111. For the same variant, the “area with substrate EWLYFQS” value was 0.101.

With MGESLFKGPRDYNPIESSICHLTNESDGHTTSLYGIGFGPFIITNKHLFRRNNGTLVVQSLHGVFKVKDTTTLQQHLVDGRDMIIIRMPKDFPPFPQKLKFREPQREERICLVTTNFQTKSMSSMVSDTSCTFPSGDGIFWKHWIQTKDGQCGSPLVSTRDGFIVGIHSASNFTNTNNYFTSVPKNFMELLTNQEAQQWVSGWRLNADSVLWGGHKVFMVKPEEPFQPVKEATQL [S16E], the “area with substrate EALYFQS” value was found to be 0.125, the “area with substrate ECLYFQS” value is 0.0894, the “area with substrate EDLYFQS” value amounted to 0.11 and the “area with substrate EELYFQS” value is 0.123. Further, the “area with substrate EFLYFQS” value was determined as 0.113, the “area with substrate EGLYFQS” value turned out to be 0.117, the “area with substrate EHLYFQS” value worked out at 0.0984 and the “area with substrate EILYFQS” value was found to be 0.0797. The “area with substrate EKLYFQS” value was 0.117, the “area with substrate EMLYFQS” value was determined as 0.115, the “area with substrate EPLYFQS” value is 0.134 and the “area with substrate EQLYFQS” value came to 0.0986. Further, the “area with substrate ERLYFQS” value came to 0.105, the “area with substrate ESLYFQS” value was found to be 0.102, the “area with substrate EVLYFQS” value was found to be 0.0954 and the “area with substrate EWLYFQS” value came out at 0.105.

As for MGESLFKGPRDYNPIQSSICHLTNESDGHTTSLYGIGFGPFIITNKHLFRRNNGTLVVQSLHGVFKVKDTTTLQQHLVDGRDMIIIRMPKDFPPFPQKLKFREPQREERICLVTTNFQTKSMSSMVSDTSCTFPSGDGIFWKHWIQTKDGQCGSPLVSTRDGFIVGIHSASNFTNTNNYFTSVPKNFMELLTNQEAQQWVSGWRLNADSVLWGGHKVFMVKPEEPFQPVKEATQL [S16Q], the “area with substrate EALYFQS” value turned out to be 0.0975, the “area with substrate ECLYFQS” value is 0.124, the “area with substrate EDLYFQS” value is 0.172 and the “area with substrate EELYFQS” value came out at 0.133. For the same variant, the “area with substrate EFLYFQS” value amounted to 0.109, the “area with substrate EHLYFQS” value amounted to 0.15, the “area with substrate EILYFQS” value came out at 0.104 and the “area with substrate EKLYFQS” value turned out to be 0.112. For the same variant, the “area with substrate ELLYFQS” value was found to be 0.0975, the “area with substrate EMLYFQS” value came to 0.131, the “area with substrate EPLYFQS” value was 0.14 and the “area with substrate EQLYFQS” value came out at 0.122. Also, the “area with substrate ERLYFQS” value came to 0.115, the “area with substrate ESLYFQS” value was found to be 0.105, the “area with substrate ETLYFQS” value is 0.113 and the “area with substrate EVLYFQS” value is 0.0987. In addition, the “area with substrate EWLYFQS” value was 0.106 and the “area with substrate EYLYFQS” value worked out at 0.109.

For the variant MGESLFKGPRDYNPIISSICHLTNESDGHTTSLYGIGFGPFIITNKHLFRRNNGTLVVQSLHGVFKVKDTTTLQQHLVDGRDMIIIRMPKDFPPFPQKLKFREPQREERICLVTTNFQTKSMSSMVSDTSCTFPSGDGIFWKHWIQTKDGQCGSPLVSTRDGFIVGIHSASNFTNTNNYFTSVPKNFMELLTNQEAQQWVSGWRLNADSVLWGGHKVFMVKPEEPFQPVKEATQL [S16I], the “area with substrate EALYFQS” value worked out at 0.12, the “area with substrate EDLYFQS” value was found to be 0.123, the “area with substrate EHLYFQS” value is 0.124 and the “area with substrate EILYFQS” value is 0.068. The “area with substrate EKLYFQS” value came to 0.102, the “area with substrate EMLYFQS” value turned out to be 0.102, the “area with substrate EPLYFQS” value came out at 0.118 and the “area with substrate EQLYFQS” value stood at 0.139. Also, the “area with substrate ERLYFQS” value came to 0.103, the “area with substrate ESLYFQS” value was 0.0999, the “area with substrate EVLYFQS” value is 0.0883 and the “area with substrate EWLYFQS” value was determined as 0.0951. The “area with substrate EYLYFQS” value amounted to 0.066.

As to MGESLFKGPRDYNPISSSICHLTNESDGHTTSLYGIGFGPFIITNKHLFRRNNGTLVVQSLHGVFKVKDTTTLQQHLVDGRDMIIIRMPKDFPPFPQKLKFREPQREERICLVTTNFQTKSMSSMVSDTSCTFPSGDGIFWKHWIQTKDGQCGSPLVSTRDGFIVGIHSASNFTNTNNYFTSVPKNFMELLQNQEAQQWVSGWRLNADSVLWGGHKVFMVKPEEPFQPVKEATQL [T192Q], the “area with substrate EALYFQS” value was determined as 0.113, the “area with substrate EDLYFQS” value came out at 0.0725, the “area with substrate EFLYFQS” value is 0.129 and the “area with substrate EGLYFQS” value was 0.0866. Also, the “area with substrate EHLYFQS” value came out at 0.0885, the “area with substrate EILYFQS” value turned out to be 0.0882, the “area with substrate EKLYFQS” value was 0.0936 and the “area with substrate EPLYFQS” value came out at 0.117. Further, the “area with substrate ERLYFQS” value came out at 0.0496, the “area with substrate ESLYFQS” value was 0.102, the “area with substrate ETLYFQS” value was 0.11 and the “area with substrate EVLYFQS” value stood at 0.121. The “area with substrate EWLYFQS” value was 0.114.

For MGESLFKGPRDYNPISSSICHLTNESDGHTTSLYGIGFGPFIITNKHLFRRNNGTLVVQSLHGVFKVKDTTTLQQHLVDGRDMIIIRMPKDFPPFPQKLKFREDQREERICLVTTNFQTKSMSSMVSDTSCTFPSGDGIFWKHWIQTKDGQCGSPLVSTRDGFIVGIHSASNFTNTNNYFTSVPKNFMELLTNQEAQQWVSGWRLNADSVLWGGHKVFMVKPEEPFQPVKEATQL [P104D], the “area with substrate EALYFQS” value came to 0.0452, the “area with substrate ECLYFQS” value stood at 0.0544, the “area with substrate EDLYFQS” value turned out to be 0.0546 and the “area with substrate EELYFQS” value was found to be 0.0527. For the same variant, the “area with substrate EGLYFQS” value turned out to be 0.0505, the “area with substrate EHLYFQS” value worked out at 0.0421, the “area with substrate EILYFQS” value was 0.0383 and the “area with substrate ELLYFQS” value was found to be 0.0458. Besides, the “area with substrate EMLYFQS” value stood at 0.0445, the “area with substrate EQLYFQS” value turned out to be 0.0606, the “area with substrate ERLYFQS” value worked out at 0.0447 and the “area with substrate ESLYFQS” value stood at 0.0523. In addition, the “area with substrate ETLYFQS” value is 0.0532 and the “area with substrate EWLYFQS” value is 0.0513.

For MGESLFKGPRDYNPISSSICHLTNESDGHTTGLYGIGFGPFIITNKHLFRRNNGTLVVQSLHGVFKVKDTTTLQQHLVDGRDMIIIRMPKDFPPFPQKLKFREPQREERICLVTTNFQTKSMSSMVSDTSCTFPSGDGIFWKHWIQTKDGQCGSPLVSTRDGFIVGIHSASNFTNTNNYFTSVPKNFMELLTNQEAQQWVSGWRLNADSVLWGGHKVFMVKPEEPFQPVKEATQL [S32G], the “area with substrate EALYFQS” value came out at 0.106, the “area with substrate ECLYFQS” value is 0.0982, the “area with substrate EDLYFQS” value was determined as 0.113 and the “area with substrate EELYFQS” value turned out to be 0.109. Besides, the “area with substrate EFLYFQS” value came out at 0.0852, the “area with substrate EHLYFQS” value came out at 0.0916, the “area with substrate EILYFQS” value stood at 0.0777 and the “area with substrate ELLYFQS” value is 0.0777. Besides, the “area with substrate EMLYFQS” value was found to be 0.113, the “area with substrate EPLYFQS” value amounted to 0.117, the “area with substrate EQLYFQS” value was 0.0959 and the “area with substrate ERLYFQS” value turned out to be 0.0945. The “area with substrate ESLYFQS” value stood at 0.0897, the “area with substrate EVLYFQS” value was 0.0827 and the “area with substrate EWLYFQS” value was 0.0884.

The values above are taken from the supplement of paper PMC12217912.
